Laboratory results taken from PubChem BioAssay AID504332 (National Center for Advancing Translational Sciences (NCATS), 2011).
About 31,000 (8.9%) of roughly 350,000 compounds were called active. Inconclusive results, whose numbers are uncertain, are shown with a selection of clear calls. The call rests on the fitted dose curve; in most records, active means well fitted inhibition curve with a large enough effect; inconclusive means small, poorly fitted or top-dose-only effect; inactive means no such curve, though single readings can be large or run the other way. Where the call is inconclusive, the potency comes from a doubtful curve fit.

Biological target: Histone-lysine N-methyltransferase EHMT2 (Homo sapiens) (UniProt Q96KQ7)
Chain of UniProt Q96KQ7 (Q96KQ7 whole entry, looked up): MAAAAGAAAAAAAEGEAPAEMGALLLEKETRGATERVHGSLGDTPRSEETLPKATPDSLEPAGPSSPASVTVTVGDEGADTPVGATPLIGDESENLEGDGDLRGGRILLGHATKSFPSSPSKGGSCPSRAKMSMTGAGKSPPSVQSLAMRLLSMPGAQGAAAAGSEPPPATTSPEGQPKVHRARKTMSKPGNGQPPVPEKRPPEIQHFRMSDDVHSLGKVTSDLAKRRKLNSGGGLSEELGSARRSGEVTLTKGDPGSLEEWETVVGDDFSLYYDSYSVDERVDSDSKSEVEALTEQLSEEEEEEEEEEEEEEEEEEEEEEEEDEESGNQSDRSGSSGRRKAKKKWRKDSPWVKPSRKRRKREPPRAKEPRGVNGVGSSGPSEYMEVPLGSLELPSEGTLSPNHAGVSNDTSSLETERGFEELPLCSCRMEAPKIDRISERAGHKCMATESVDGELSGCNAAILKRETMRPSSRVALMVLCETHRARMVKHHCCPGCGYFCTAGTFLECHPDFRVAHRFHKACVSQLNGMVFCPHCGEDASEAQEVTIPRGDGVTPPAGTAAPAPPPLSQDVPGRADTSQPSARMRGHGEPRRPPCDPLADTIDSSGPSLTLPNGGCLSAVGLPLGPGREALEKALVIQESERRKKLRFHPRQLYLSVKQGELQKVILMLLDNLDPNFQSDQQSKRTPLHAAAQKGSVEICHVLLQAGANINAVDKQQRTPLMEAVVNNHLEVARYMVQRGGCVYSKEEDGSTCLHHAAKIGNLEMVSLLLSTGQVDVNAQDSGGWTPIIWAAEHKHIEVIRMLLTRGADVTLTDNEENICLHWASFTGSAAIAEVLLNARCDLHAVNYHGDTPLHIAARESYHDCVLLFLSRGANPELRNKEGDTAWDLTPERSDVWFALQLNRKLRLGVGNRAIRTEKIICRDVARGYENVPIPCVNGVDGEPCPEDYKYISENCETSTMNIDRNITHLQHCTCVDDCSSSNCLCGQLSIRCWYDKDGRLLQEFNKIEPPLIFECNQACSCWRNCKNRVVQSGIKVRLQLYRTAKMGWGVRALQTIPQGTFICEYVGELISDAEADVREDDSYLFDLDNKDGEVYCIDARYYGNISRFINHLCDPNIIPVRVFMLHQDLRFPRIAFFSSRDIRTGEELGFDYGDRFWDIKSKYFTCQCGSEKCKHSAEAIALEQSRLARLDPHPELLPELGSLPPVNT
Experiment: qHTS Assay for Inhibitors of Histone Lysine Methyltransferase G9a; further: nearly all actives have a fitted effect of over 75% in size
Conditions: G9a H3K9 monomethylation, AlphaScreen, 2 h; activity, negative = inhibition: at 59 µM (top of the series) unless noted
Procedure, shortened: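 G9a (20 nM) was preincubated 15 min with compound, then reacted 2 h at room temperature with 500 nM biotin-H3K9 peptide and 20 µM SAM. Monomethyl-H3K9 detected by AlphaScreen using anti-H3K9me1 antibody.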
On the % scale 0 is the no-effect control and ±100 the full control effect; potency means the concentration at half of the fitted maximal effect; tags describe the fitted curve by direction and shape.

Row | Compound | Potency | activity, negative = inhibition
1 | COc1ccc(-c2nnc(SCc3ccccn3)n2C)cc1 | inactive | 
2 | Cc1c(C(=O)N2CCCC2)oc2c1-c1nn(CC(=O)NCc3ccc(OC(C)C)cc3)cc1CC2 | inconclusive: 25.1 µM [inhibitor, partial curve, poor fit] | 
3 | COc1ccc(S(=O)(=O)N2CCN(c3ncccn3)CC2)cc1OC |  | inactive: 10.3% [at 0.501 µM]
4 | O=C(Nc1ccc(N2CCCC2)cc1)C(c1ccccc1)c1ccccc1 | active: 31.6 µM | 
5 | Cc1ccc(C)c(NC(=O)COC(=O)CCC(=O)c2cccs2)c1 | inactive | 
6 | COc1ccc(CCn2c(=N)c(C(=O)N3CCN(C)CC3)cc3c(=O)n4ccccc4nc32)cc1 | active: 39.8 µM | 
7 | CN(C)C(=S)c1ccccc1 | active: 10 µM | 
8 | COc1ccc(O)c(CNc2ccccc2F)c1 | inconclusive: 2 µM [inhibitor, full curve, poor fit] | 
9 | CC(=O)Nc1cccc(-c2nnc(SCC(=O)n3c4c(c5ccccc53)CCCC4)n2C)c1 | inconclusive: 1.58 µM [inhibitor, single point] | 
10 | Cc1cnc(CNc2cc(-c3ccc4c(c3)OCO4)ncn2)cn1 |  | inconclusive: -51.4% [inhibitor] [at 0.501 µM]
11 | O=C(CCNc1ccc(F)cc1)c1cccc([N+](=O)[O-])c1 |  | inconclusive: -124% [inhibitor]
12 | COc1ccc(/C(O)=C2/C(=O)C(=O)N(CCCN(C)C)C2c2cccc(Cl)c2)cc1OC (centres undefined) | inconclusive: 14.1 µM [inhibitor, partial curve, poor fit] | 
13 | Cc1noc(C)c1S(=O)(=O)N1CCC(C(=O)N2CCN(C3CCCC3)CC2)CC1 |  | inconclusive: -52% [inhibitor]
14 | CCOc1ccc2nc(N(CCN(C)C)C(=O)/C=C/c3cccs3)sc2c1 | inconclusive: 56.2 µM [inhibitor, partial curve, poor fit] | 
15 | Cc1nn(-c2ccccc2)c(C)c1C(=O)OCC(=O)Nc1ccc2c(c1)OCO2 | active: 79.4 µM | 
16 | O=C(CN1CCN(c2ncccn2)CC1)NCCC1=CCCCC1 | inconclusive: 10 µM [inhibitor, partial curve, poor fit] | 
17 | Cc1ccc(CCN2CC(C(=O)NCCCOC(C)C)CC2=O)cc1 (centres undefined) | inactive | 
18 | COC(=O)NCC(c1cccnc1)N1CCOCC1 (centres undefined) | inconclusive: 39.8 µM [inhibitor, single point] | 
19 | CCc1ccc(NC(=O)Cn2c(=O)c3cccn3c3ccccc32)cc1 | inactive | 
20 | CCc1cccc(C)c1NC(=O)CN1CCN(Cc2ccccc2Cl)S1(=O)=O | inactive | 
21 | CN(C)c1cc(N/N=C\c2ccccc2)nc(N(C)C)n1 | inactive | 
22 | O=C(COC(=O)CNS(=O)(=O)c1ccc(Br)cc1Cl)NCCc1ccccc1 | inactive | 
23 | CCOC(=O)C(C(=O)NCc1cccc(OC)c1)c1ncc(C(F)(F)F)cc1Cl (centres undefined) | inactive | 
24 | CCC(=O)N1CCCC(C(=O)c2ccc(-c3ccccc3)cc2)C1 (centres undefined) | inactive | 
25 | Cc1c(C(=O)Nc2ccccn2)sc2nc3n(c(=O)c12)CCC3 | inconclusive: 79.4 µM [inhibitor, single point] | 

Row | Compound | Potency | activity, negative = inhibition
26 | Cc1cc(OCC(=O)OC(C)C(=O)Nc2ccc(N3CCOCC3)cc2)ccc1Cl (centres undefined) |  | inactive: 18.5% [at 2.33 µM]
27 | COc1ccc(OC)c(NC(=O)CSc2nnnn2C2CCCC2)c1 | inactive | 
28 | O=C(O)c1ccc(O)c(N2C(=O)Nc3ccccc3N2O)c1 | inconclusive: 89.1 µM [inhibitor, single point] | 
29 | O=C(C1CCN(S(=O)(=O)c2cnc[nH]2)CC1)N1CCN(c2ncccn2)CC1 | inconclusive: 3.55 µM [inhibitor, full curve] | 
30 | Cc1cc(NC(=O)COC(=O)CNS(=O)(=O)c2ccc(C)c(C)c2)no1 | inconclusive: 17.8 µM [inhibitor, partial curve] | 
31 | Cc1ccc(-c2ccc(/C=N/NC(=O)CN3CCOCC3)o2)cc1[N+](=O)[O-] | inconclusive: 50.1 µM [inhibitor, partial curve, poor fit] | 
32 | COc1cc(-c2nc(N)n[nH]2)cc(OC)c1OC | inactive | 
33 | COc1ccc(OC(C)C(=O)NCCc2nc3ccccc3[nH]2)cc1 (centres undefined) | inactive | 
34 | O=C(CNC(=O)C1CC(=O)N(c2cccc3ccccc23)C1)Nc1ccccc1Br (centres undefined) | inconclusive: 25.1 µM [inhibitor, single point] | 
35 | Cc1ccc(SCC(=O)NCCN2C(=O)CSC2=O)cc1C | inactive | 
36 | O=C(CO/N=C/c1cccc([N+](=O)[O-])c1)Nc1ccc2ccccc2c1 | active: 0.891 µM | 
37 | CCNC(=S)NN=C1CCC(C(C)(C)C)CC1 (centres undefined) | inconclusive: 44.7 µM [inhibitor, partial curve, poor fit] | 
38 | N#Cc1ccc(NC(=S)NC(=O)CCc2ccc(S(=O)(=O)N3CCOCC3)cc2)cc1 | inconclusive: 56.2 µM [inhibitor, partial curve] | 
39 | Cc1noc(C)c1Cc1ccc(O)cc1 | inactive | 
40 | COc1ccccc1C(=O)Nc1ccc(C(=O)OCc2cc(=O)n3nc(C)sc3n2)cc1 | inactive | 
41 | COc1ccccc1C(=O)NC(=O)COC(=O)c1ncc(Cl)c(Cl)c1Cl | inconclusive: 10 µM [inhibitor, partial curve, poor fit] | 
42 | COC(=O)C(NC(C)=O)(Nc1nc2c(s1)CCCC2)C(F)(F)F (centres undefined) | inconclusive: 2.24 µM [inhibitor, partial curve, poor fit] | 
43 | COc1ccc(CCN2C(=O)CN(C3CCCCCC3)C(=O)C2c2ccc(OC(C)C)c(OC)c2)cc1OC (centres undefined) | inactive | 
44 | COc1ccc(NC(=O)CCCNS(=O)(=O)c2cccs2)cc1 | inconclusive: 70.8 µM [inhibitor, single point] | 
45 | COCCn1c(C)cc(C(=O)COC(=O)c2ccc([N+](=O)[O-])o2)c1C | active: 79.4 µM | 
46 | O=C(CSc1nccn1-c1cccc(Cl)c1)NC1CCCC1 | inconclusive: 1.26 µM [inhibitor, full curve, poor fit] | 
47 | c1ccc(COc2cccc(CNCc3cccnc3)c2)cc1 |  | inconclusive: -63.4% [inhibitor]
48 | Cc1ccc(S(=O)(=O)N2Cc3ccccc3CC2C(=O)Nc2ccc3c(c2)OCO3)cc1 (centres undefined) | inconclusive: 22.4 µM [inhibitor, single point] | 
49 | COc1cc2c(C)nc(C)c(C#N)c2cc1OC |  | inconclusive: -63.9% [inhibitor]
50 | O=C(Oc1ccc(C(=S)N2CCOCC2)cc1)c1cccc([N+](=O)[O-])c1 | active: 22.4 µM | 

Row | Compound | Potency | activity, negative = inhibition
51 | Cc1csc(NC(=O)CSc2nc(=O)[nH]c3c2CCCC3)n1 | inactive | 
52 | O=C1C=C(c2cccc(Cl)c2O)C[C@@H](c2ccc(Cl)cc2)C1 |  | inactive: 22.3% [at 2.33 µM]
53 | CCOc1ccc(S(=O)(=O)N2CCN(c3ccc(OC)cc3)CC2)c2cccnc12 |  | inactive: 24.8% [at 2.33 µM]
54 | Cc1ccc(S(=O)(=O)Cn2nnnc2C(C(C)C)N2CCc3ccccc3C2)cc1 (centres undefined) | inconclusive: 1.78 µM [inhibitor, full curve, poor fit] | 
55 | COc1ccc(C2=NN(C(=O)CSc3nnc(C)n3C)C(c3ccco3)C2)cc1 (centres undefined) | active: 50.1 µM | 
56 | Cn1c(OCc2cccnc2)nc2c1c(=O)n(Cc1ccc(F)cc1)c(=O)n2C |  | inactive: -11.8% [at 12.7 µM]
57 | NCCCC[C@@H]1NC(=O)[C@H](CCC(=O)O)NC(=O)c2cc([N+](=O)[O-])cc(I)c2OCC[C@@H](C(N)=O)NC1=O | active: 31.6 µM | 
58 | CCOc1ccc(CN2CCN(Cc3cccn3-c3cccnc3)CC2CCO)cc1 (centres undefined) | inconclusive: 44.7 µM [inhibitor, partial curve] | 
59 | COc1cccc(-n2cn[nH]c2=S)c1 | active: 12.6 µM | 
60 | Cc1ccccc1N1C(=O)CC(N(O)c2ccccc2)C1=O (centres undefined) | inconclusive: 100 µM [inhibitor, single point] | 
61 | Cc1ccc(CNC(=O)CNS(=O)(=O)c2ccc(Br)s2)cc1 | inactive | 
62 | CN(CC(=O)Nc1ccc(Cl)c(C(F)(F)F)c1)C(=O)C1CSC2(C)CCC(=O)N12 (centres undefined) | inconclusive: 100 µM [inhibitor, single point] | 
63 | COc1ccc(CCN(C(=O)C(F)(F)F)C(C(=O)NC2CCCCC2)c2cccs2)cc1 (centres undefined) | inactive | 
64 | Cc1ccc(NC(=O)CNc2ccc(N3CCOCC3)cc2)cc1S(=O)(=O)N(C)C | inconclusive: 44.7 µM [inhibitor, partial curve, poor fit] | 
65 | CCOC(=O)c1c(C)[nH]c(C(=O)OCC(=O)N2CCCC2=O)c1C | inconclusive: 50.1 µM [inhibitor, partial curve, poor fit] | 
66 | COc1ccc(-c2csc(NC(=O)CS(=O)(=O)c3ccc(F)cc3)n2)cc1OC | inconclusive: 79.4 µM [inhibitor, single point] | 
67 | Cc1sc(NC(=O)c2ccco2)c(CN2CCN(Cc3ccccc3)CC2)c1C | inconclusive: 50.1 µM [inhibitor, partial curve, poor fit] | 
68 | Brc1cccc(-c2nnc(-c3ccccc3)o2)c1 | inactive | 
69 | COC(=O)c1ccc2c(=O)n3c(nc2c1)SCC(c1ccccc1)=N3 | inconclusive: 31.6 µM [inhibitor, single point] | 
70 | Cc1cc(S(=O)(=O)N2CCOCC2)ccc1OCC(=O)NCc1ccccn1 | inactive | 
71 | O=C(CNC(=O)c1ccc(S(=O)(=O)N2CCCC2)cc1)N/N=C/c1ccc(Cl)cc1Cl | inactive | 
72 | NC(=O)c1ccc(/C(N)=N/S(=O)(=O)c2cc(C(F)(F)F)cc(C(F)(F)F)c2)cc1 |  | inconclusive: -65.3% [inhibitor]
73 | Cc1cccc(NC(=O)c2sc3nc(N)c(C#N)cc3c2N)c1 | active: 10 µM | 
74 | COc1ccc(C(=O)Nc2nccs2)cc1[N+](=O)[O-] | inconclusive: 3.16 µM [inhibitor, full curve] | 
